Assay results as given in US12540197B2, “Anti-tissue factor antibodies and antibody conjugates, compositions comprising anti-tissue factor antibodies or antibody conjugates, and methods of making and using anti-tissue factor antibodies and antibody conjugates” (SUTRO BIOPHARMA, INC., priority 2023, dated 2026).

What was measured:
[1] = biological target: T1, human TF (Homo sapiens, UniProt P13726); assay: Biacore off-rate and kinetic binding, human TF; conditions: Table 12, 25° C., 1:1 Langmuir
T1 construct: purchased Lake Pharma
T1 sequence (P13726 33-295): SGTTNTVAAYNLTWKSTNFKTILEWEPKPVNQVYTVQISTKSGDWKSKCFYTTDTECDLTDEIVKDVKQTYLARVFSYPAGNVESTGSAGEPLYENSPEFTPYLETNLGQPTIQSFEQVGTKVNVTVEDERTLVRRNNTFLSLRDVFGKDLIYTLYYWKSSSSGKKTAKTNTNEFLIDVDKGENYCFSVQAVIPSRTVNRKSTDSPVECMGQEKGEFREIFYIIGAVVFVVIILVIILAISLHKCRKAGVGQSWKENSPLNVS
Procedure: (§1) Anti-Fc polyclonal antibodies were immobilized onto a CM4 chip (Cytiva #BR100534) using amine coupling chemistry (Human Antibody Capture Kit, Cytiva #BR100839). The immobilization steps were carried out at a flow rate of 25 μL/min in 1×HBS-EP+buffer (Cytiva #BR100669). The sensor surfaces were activated for 7 min with a mixture of N-hydroxysuccinimide (NHS, 0.05 M) and 1-ethyl-3-(3-dimethylaminopropyl)-carbodiimide (EDC, 0.2 M). The anti-Fc polyclonal antibodies were injected over all 4 flow cells at a concentration of 25 μg/mL in 10 mM sodium acetate, pH 4.5, for 7 min. Ethanolamine (1 M, pH 8.5) was injected for 7 min to block any remaining activated groups. Approximately 6,000 response units (RU) of capture antibody was immobilized on each flow cell.
(§2) Off-rate and kinetic binding experiments were performed at 25° C. using 1×HBS-EP+buffer. Antibodies were injected over the anti-Fc surface at a concentration of 3 μg/mL for 12 seconds at a flow rate of 10 μL/min on flow cells 2, 3 and 4, followed by a buffer wash for 30 seconds at the same flow rate. Single point off-rate analysis was carried out using an antigen concentration of 100 nM. […] After capturing ligand (antibody) on the anti-Fc surface, the analyte (human TF, Lake Pharma; cynomolgus TF, Sino Bio #90885-C08H; mouse TF, R&D Systems #3178-PA) was bound for 180 seconds, followed by a 420 second dissociation phase at a flow rate of 50 μL/min. Between each ligand capture and analyte binding cycle, regeneration was carried out using 2 injections of 10 mM glycine pH 2.0 for 30 seconds at 30 μL/min, followed by a 30 second buffer wash step.
(§3) The data were fit with the Biacore T200 Evaluation software, using a 1:1 Langmuir binding model. KD (affinity, nM) was determined as a ratio of the kinetic rate constants calculated from the fits of the association and dissociation phases.
(§4) Anti-Fc polyclonal antibodies were immobilized onto a CM4 chip (Cytiva #BR100534) using amine coupling chemistry (Human Antibody Capture Kit, Cytiva #BR100839). The immobilization steps were carried out at a flow rate of 25 μL/min in 1×HBS-EP+buffer (Cytiva #BR100669). The sensor surfaces were activated for 7 min with a mixture of NHS (0.05 M) and EDC (0.2 M). The Anti-Fc antibodies were injected over all 4 flow cells at a concentration of 25 ug/ml in 10 mM sodium acetate, pH 4.5, for 7 min. Ethanolamine (1 M, pH 8.5) was injected for 7 min to block any remaining activated groups. Approximately 6,000 response units (RU) of capture antibody was immobilized on each flow cell. Off-rate and kinetic binding experiments were performed at 25° C. using 1×HBS-EP+buffer. Antibodies or ADCs were injected over the anti-Fc surface at a concentration of 3 μg/mL for 12 seconds at a flow rate of 10 μL/min on flow cells 2, 3 and 4, followed by a buffer wash for 30 seconds at the same flow rate. […] After capturing ligand (antibody) on the anti-Fc surface, the analyte (human TF, Lake Pharma; cynomolgus TF, Sino Bio #90885-C08H; mouse TF, R&D Systems #3178-PA) was bound for 180 seconds, followed by a 420 second dissociation phase at a flow rate of 50 μL/min. Between each ligand capture and analyte binding cycle, regeneration was carried out using 2 injections of 10 mM Glycine pH 2.0 for 30 seconds at 30 μL/min, followed by a 30 second buffer wash step. The data was fit with the Biacore T200 Evaluation software, using a 1-1 Langmuir binding model. KD (affinity, nM) was determined as a ratio of the kinetic rate constants calculated from the fits of the association and dissociation phases.

[2] = tested on: cynomolgus TF; assay: Biacore off-rate and kinetic binding, cynomolgus TF; conditions: Table 12, 25° C., 1:1 Langmuir
Procedure: as §1, §2, §3, §4

[3] = tested on: HEK293T; assay: FACS cell-binding assay on parental HEK293T cells; conditions: Table 16, parental cells
From the text: (§5) HEK293T, BxPC3 cells (TF positive) and NCI-H1703 (TF negative) cells were obtained from ATCC (American Type Culture Collection) and maintained in DMEM:F12 (1:1), high glucose (Corning) supplemented with 10% heat-inactivated fetal bovine serum (ThermoScientific), 1× Penicillin/Streptomycin (Corning) and 2 mmol glutamax (Thermo Fisher Scientific). To generate cells that stably expressing human tissue factor (HEK293T-humanTF) or cynomolgus tissue factor (HEK293T-cynoTF), HEK293T cells were transfected with plasmid vectors that contain the corresponding protein sequence and stable clones were selected with puromycin.
(§6) For a fluorescence-activated cell sorting (FACS) cell-binding assay, cells were collected by Accutase and counted by the Vi-CELL Cell Viability Analyzersharvested and, then re-suspended in FACS buffer (DPBS buffer supplemented with 1% bovine serum albumin). A total of 200,000 cells in 100 μL were incubated on ice with 100 μL of anti-TF antibodies in each well of a 96-well plate. Cells were washed twice with ice-cold FACS buffer and then incubated on ice for 60 mins with 5 μg/mL Alexa 647-labeled donkey anti-human Fc antibody (Jackson ImmunoResearch). Unstained cells and cells stained with secondary antibody alone were used as controls. Cells were washed twice with FACS buffer and analyzed using a BD FACS Canto system. Geometric mean fluorescence intensities (MFI) were fitted using non-linear regression analysis with one site specific binding equation on GraphPad Prism (GraphPad Software; La Jolla, CA).

[4] = biological target: T2, HEK293T-human TF (Homo sapiens, UniProt P13726); assay: FACS cell-binding assay on HEK293T-human TF cells; conditions: Table 16
T2 construct: expressed in transfected cells
T2 sequence (P13726 33-295): as above
From the text: as §5
as §6, with “Cells were washed twice with ice-cold FACS buffer and then incubated on ice for 60 mins with 5 μg/mL Alexa 647-labeled donkey anti-human Fc antibody (Jackson ImmunoResearch). Unstained cells and cells stained with secondary antibody alone were used as controls.” left out

[5] = tested on: HEK293T-cyno TF; assay: FACS cell-binding assay on HEK293T-cyno TF cells; set-up: species or system cynomolgus; conditions: Table 16
From the text: as §5
as §6, with “Cells were washed twice with ice-cold FACS buffer and then incubated on ice for 60 mins with 5 μg/mL Alexa 647-labeled donkey anti-human Fc antibody (Jackson ImmunoResearch). Unstained cells and cells stained with secondary antibody alone were used as controls.” left out

[6] = tested on: primary human keratinocytes; assay: Cell binding on primary adult human keratinocytes (flow cytometry); conditions: Table 29, primary human keratinocytes; read-out: Keratinocyte Binding Kd
Procedure: Since TF is expressed in human skin, anti-TF antibody 2900-A02 and 2842-B01-Hc3/Lc2 were tested in cell binding assay on primary adult human keratinocyte cells purchased from Thermo Fisher Scientific. Keratinocytes were cultured in defined keratinocyte culture medium (EpiLife Medium, Thermo Fisher Scientific) supplemented with growth supplement S7 (S0175 from Thermo Fisher Scientific) and Penicillin/Streptomycin on plates coated with keratinocyte coating matrix (Thermo Fisher Scientific).
To evaluate antibody binding activity of the anti-TF antibodies on the adult primary keratinocytes, a total of 100,000 keratinocytes per well were incubated on ice with serial dilutions of anti-TF antibodies in FACS buffer (PBS buffer supplemented with 1% bovine serum albumin, 0.05% sodium azide) for 60 minutes. Cells were washed twice with ice-cold FACS buffer and then incubated with 5 microgram/mL Alexa 647 labeled donkey anti-human Fc antibody (Jackson ImmunoResearch, West Grove, PA) on ice for another 60 minutes. Unstained cells and cells stained with secondary antibodies alone were used as controls. Samples were then washed twice using FACS buffer and analyzed using an Attune flow cytometer (Thermo Fisher). Geometric mean fluorescence intensities were fitted using non-linear regression analysis with one site specific binding equation on GraphPad Prism.

| Biacore human TF kinetics ka [1] [M⁻¹ s⁻¹] | Biacore human TF kinetics kd [1] [s⁻¹] | Biacore cynomolgus TF kinetics ka [2] [M⁻¹ s⁻¹] | Biacore cynomolgus TF kinetics kd [2] [s⁻¹] | Kd ([1]; read-out: Biacore human TF kinetics KD) [nM] | HEK293T-human TF Bmax (MFI) [4] [MFI] | Kd [4] [nM] | Kd ([2]; read-out: Biacore cynomolgus TF kinetics KD) [nM] | Molecule | HEK293T Bmax (MFI) [3] [MFI] | HEK293T-cyno TF Bmax (MFI) [5] [MFI] | Kd [5] [nM] | Kd [6] [nM] |
| --- | --- | --- | --- | --- | --- | --- | --- | --- | --- | --- | --- | --- |
| 362000 | 0.00196 | 164000 | 0.00309 | – | – | – | – | 44 (antibody, non-natural residue at Y180/F404; conjugate) heavy: MEVQLVESGGGLVQPGGSLRLSCAASGFTIHDYVIHWVRQAPGKGLEWVGYIDPSNGYTYYADSVKGRFTISADTSKNTAYLQMNSLRAEDTAVYYCARDDQSISSPLDYWGQGTLVTVSSASTKGPSVFPLAPSSKSTSGGTAALGCLVKDYFPEPVTVSWNSGALTSGVHTFPAVLQSSGLSLSSVVTVPSSSLGTQTYICNVNHKPSNTKVDKKVEPKSCDKTHTCPPCPAPELLGGPSVFLFPPKPKDTLMISRTPEVTCVVVDVSHEDPEVKFNWYVDGVEVHNAKTKPREEQYNSTYRVVSVLTVLHQDWLNGKEYKCKVSNKALPAPIEKTISKAKGQPREPQVYTLPPSREEMTKNQVSLTCLVKGFYPSDIAVEWESNGQPENNYKTTPPVLDSDGSFLYSKLTVDKSRWQQGNVFSCSVMHEALHNHYTQKSLSLSPGK light: [about 200 residues not given here] | 2046 | – | – | – |
| 188000 | 0.000674 | 128000 | 0.00309 | – | – | – | – | 42 (antibody, non-natural residue at Y180/F404; conjugate) heavy: MEVQLVESGGGLVQPGGSLRLSCAASGFTISQYWIHWVRQAPGKGLEWVGYIDPYNGYTYYADSVKGRFTISADTSKNTAYLQMNSLRAEDTAVYYCARDYGSWRIRLDYWGQGTLVTVSSASTKGPSVFPLAPSSKSTSGGTAALGCLVKDYFPEPVTVSWNSGALTSGVHTFPAVLQSSGLSLSSVVTVPSSSLGTQTYICNVNHKPSNTKVDKKVEPKSCDKTHTCPPCPAPELLGGPSVFLFPPKPKDTLMISRTPEVTCVVVDVSHEDPEVKFNWYVDGVEVHNAKTKPREEQYNSTYRVVSVLTVLHQDWLNGKEYKCKVSNKALPAPIEKTISKAKGQPREPQVYTLPPSREEMTKNQVSLTCLVKGFYPSDIAVEWESNGQPENNYKTTPPVLDSDGSFLYSKLTVDKSRWQQGNVFSCSVMHEALHNHYTQKSLSLSPGK light: [about 200 residues not given here] | 1525 | – | – | – |
| 303000 | 0.00144 | 285000 | 0.000743 | 4.77 | 306977 | 1.2 | 2.61 | 36 (antibody, pAzMeF at Y180/F404; drug conjugate) heavy: MEVQLVESGGGLVQPGGSLRLSCAASGFTISGYIIHWVRQAPGKGLEWVGYIDPSNGYTYYADSVKGRFTISADTSKNTAYLQMNSLRAEDTAVYYCARDDQSLSSPFDYWGQGTLVTVSSASTKGPSVFPLAPSSKSTSGGTAALGCLVKDYFPEPVTVSWNSGALTSGVHTFPAVLQSSGLSLSSVVTVPSSSLGTQTYICNVNHKPSNTKVDKKVEPKSCDKTHTCPPCPAPELLGGPSVFLFPPKPKDTLMISRTPEVTCVVVDVSHEDPEVKFNWYVDGVEVHNAKTKPREEQYNSTYRVVSVLTVLHQDWLNGKEYKCKVSNKALPAPIEKTISKAKGQPREPQVYTLPPSREEMTKNQVSLTCLVKGFYPSDIAVEWESNGQPENNYKTTPPVLDSDGSFLYSKLTVDKSRWQQGNVFSCSVMHEALHNHYTQKSLSLSPGK light: [about 200 residues not given here] | 1503 | 443667 | 14 | 3.1 |
| 362000 | 0.00226 | 164000 | 0.00681 | – | – | – | – | 46 (antibody, non-natural residue at Y180/F404; conjugate) heavy: MEVQLVESGGGLVQPGGSLRLSCAASGFTISDYVIHWVRQAPGKGLEWVGYIDPSNGYTYYADSVKGRFTISADTSKNTAYLQMNSLRAEDTAVYYCARDDQSISSPLDYWGQGTLVTVSSASTKGPSVFPLAPSSKSTSGGTAALGCLVKDYFPEPVTVSWNSGALTSGVHTFPAVLQSSGLSLSSVVTVPSSSLGTQTYICNVNHKPSNTKVDKKVEPKSCDKTHTCPPCPAPELLGGPSVFLFPPKPKDTLMISRTPEVTCVVVDVSHEDPEVKFNWYVDGVEVHNAKTKPREEQYNSTYRVVSVLTVLHQDWLNGKEYKCKVSNKALPAPIEKTISKAKGQPREPQVYTLPPSREEMTKNQVSLTCLVKGFYPSDIAVEWESNGQPENNYKTTPPVLDSDGSFLYSKLTVDKSRWQQGNVFSCSVMHEALHNHYTQKSLSLSPGK light: [about 200 residues not given here] | 1253 | – | – | – |
